Experimental data reported in the supplement of paper PMC8728848.
The other results are listed elsewhere or left out.

Assays:
Assay in all cases: glycan array binding signal (z-score within array); higher = stronger binding
Conditions in all cases: glycan notation: IUPAC condensed, linker removed
[1] = target: Glc(b1-2)Glc(b1-2)Glc(b1-2)Glc(b1-2)Glc(b1-2)Glc(b1-2)Glc(b1-2)Glc(b1-2)Glc(b1-2)Glc(b1-2)Glc
Outline: (§1)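 Glycan array data were curated from 3228 arrays in the Consortium for Functional Glycomics database and kept only where the protein sequence was available. Glycan names were converted to IUPAC-condensed notation, and columns mapping to the same glycan were averaged. The binding signal is a within-array Z-score, averaged across arrays of the same protein sequence at different concentrations or buffers and across linkers. Negative Z-scores can be read as non-binding.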

[2] = target: Glc(b1-2)Glc(b1-2)Glc(b1-2)Glc(b1-2)Glc(b1-2)Glc(b1-2)Glc(b1-2)Glc(b1-2)Glc(b1-2)Glc(b1-2)Glc(b1-2)Glc
Outline: as §1

[3] = target: Glc(b1-2)Glc(b1-2)Glc(b1-2)Glc(b1-2)Glc(b1-2)Glc(b1-2)Glc(b1-2)Glc(b1-2)Glc(b1-2)Glc(b1-2)Glc(b1-2)Glc(b1-2)Glc
Outline: as §1

Glc(b1-3)Glc = target: Glc(b1-3)Glc
Outline: as §1

Glc(b1-3)Glc(b1-3)Glc = target: Glc(b1-3)Glc(b1-3)Glc
Outline: as §1

[4] = target: Glc(b1-3)Glc(b1-3)Glc(b1-3)Glc
Outline: as §1

[5] = target: Glc(b1-3)Glc(b1-3)Glc(b1-3)Glc(b1-3)Glc
Outline: as §1

[6] = target: Glc(b1-3)Glc(b1-3)Glc(b1-3)Glc(b1-3)Glc(b1-3)Glc
Outline: as §1

[7] = target: Glc(b1-3)Glc(b1-3)Glc(b1-3)Glc(b1-3)Glc(b1-3)Glc(b1-3)Glc
Outline: as §1

[8] = target: Glc(b1-3)Glc(b1-3)Glc(b1-3)Glc(b1-3)Glc(b1-3)Glc(b1-3)Glc(b1-3)Glc
Outline: as §1

[9] = target: Glc(b1-3)Glc(b1-3)Glc(b1-3)Glc(b1-3)Glc(b1-3)Glc(b1-3)Glc(b1-3)Glc(b1-3)Glc
Outline: as §1

[10] = target: Glc(b1-3)Glc(b1-3)Glc(b1-3)Glc(b1-3)Glc(b1-3)Glc(b1-3)Glc(b1-3)Glc(b1-3)Glc(b1-3)Glc
Outline: as §1

[11] = target: Glc(b1-3)Glc(b1-3)Glc(b1-3)Glc(b1-3)Glc(b1-3)Glc(b1-3)Glc(b1-3)Glc(b1-3)Glc(b1-3)Glc(b1-3)Glc
Outline: as §1

[12] = target: Glc(b1-3)Glc(b1-3)Glc(b1-3)Glc(b1-3)Glc(b1-3)Glc(b1-3)Glc(b1-3)Glc(b1-3)Glc(b1-3)Glc(b1-3)Glc(b1-3)Glc
Outline: as §1

[13] = target: Glc(b1-3)Glc(b1-3)Glc(b1-3)Glc(b1-3)Glc(b1-3)Glc(b1-3)Glc(b1-3)Glc(b1-3)Glc(b1-3)Glc(b1-3)Glc(b1-3)Glc(b1-3)Glc
Outline: as §1

[14] = target: Glc(b1-3)Glc(b1-3)Glc(b1-3)Glc(b1-3)Glc(b1-3)Glc(b1-3)Glc(b1-3)[Glc(b1-6)]Glc(b1-3)Glc
Outline: as §1

[15] = target: Glc(b1-3)Glc(b1-3)Glc(b1-3)Glc(b1-3)Glc(b1-3)Glc(b1-3)[Glc(b1-6)]Glc(b1-3)Glc(b1-3)Glc
Outline: as §1

[16] = target: Glc(b1-3)Glc(b1-3)Glc(b1-3)Glc(b1-3)[Glc(b1-6)]Glc(b1-3)Glc(b1-3)Glc(b1-3)Glc(b1-3)Glc
Outline: as §1

[17] = target: Glc(b1-3)Glc(b1-3)Glc(b1-3)[Glc(b1-6)]Glc(b1-3)Glc(b1-3)Glc(b1-3)Glc(b1-3)[Glc(b1-6)]Glc(b1-3)Glc
Outline: as §1

[18] = target: Glc(b1-3)Glc(b1-3)[Glc(b1-6)]Glc(b1-3)Glc(b1-3)Glc(b1-3)Glc(b1-3)Glc(b1-3)Glc(b1-3)Glc
Outline: as §1

Glc(b1-3)Glc(b1-4)Glc = target: Glc(b1-3)Glc(b1-4)Glc
Outline: as §1

[19] = target: Glc(b1-3)Glc(b1-4)Glc(b1-4)Glc
Outline: as §1

[20] = target: Glc(b1-3)Glc(b1-4)Glc(b1-6)Glc(b1-4)Glc
Outline: as §1

[21] = target: Glc(b1-3)[Glc(b1-6)]Glc(a1-3)Glc(b1-3)[Glc(b1-6)]Glc
Outline: as §1

[22] = target: Glc(b1-3)[Glc(b1-6)]Glc(b1-3)Glc(b1-3)Glc(b1-3)Glc(b1-3)Glc(b1-3)Glc(b1-3)Glc
Outline: as §1

Glc(b1-4)Glc = target: Glc(b1-4)Glc
Outline: as §1

Glc(b1-4)Glc(b1-3)Glc = target: Glc(b1-4)Glc(b1-3)Glc
Outline: as §1

[23] = target: Glc(b1-4)Glc(b1-3)Glc(b1-4)Glc
Outline: as §1

Glc(b1-4)Glc(b1-4)Glc = target: Glc(b1-4)Glc(b1-4)Glc
Outline: as §1

[24] = target: Glc(b1-4)Glc(b1-4)Glc(b1-3)Glc
Outline: as §1

[25] = target: Glc(b1-4)Glc(b1-4)Glc(b1-3)Glc(b1-4)Glc(b1-4)Glc(b1-3)Glc
Outline: as §1

[26] = target: Glc(b1-4)Glc(b1-4)Glc(b1-4)Glc
Outline: as §1

[27] = target: Glc(b1-4)Glc(b1-4)Glc(b1-4)Glc(b1-3)Glc
Outline: as §1

[28] = target: Glc(b1-4)Glc(b1-4)Glc(b1-4)Glc(b1-4)Glc
Outline: as §1

[29] = target: Glc(b1-4)Glc(b1-4)Glc(b1-4)Glc(b1-4)Glc(b1-4)Glc
Outline: as §1

[30] = target: Glc(b1-4)Glc(b1-4)Glc(b1-4)Glc(b1-4)Glc(b1-4)Glc(b1-4)Glc
Outline: as §1

[31] = target: Glc(b1-4)Glc(b1-4)Glc(b1-4)Glc(b1-4)Glc(b1-4)Glc(b1-4)Glc(b1-4)Glc
Outline: as §1

[32] = target: Glc(b1-4)Glc(b1-4)Glc(b1-4)Glc(b1-4)Glc(b1-4)Glc(b1-4)Glc(b1-4)Glc(b1-4)Glc
Outline: as §1

[33] = target: Glc(b1-4)Glc(b1-4)Glc(b1-4)Glc(b1-4)Glc(b1-4)Glc(b1-4)Glc(b1-4)Glc(b1-4)Glc(b1-4)Glc
Outline: as §1

[34] = target: Glc(b1-4)Glc(b1-4)Glc(b1-4)Glc(b1-4)Glc(b1-4)Glc(b1-4)Glc(b1-4)Glc(b1-4)Glc(b1-4)Glc(b1-4)Glc
Outline: as §1

[35] = target: Glc(b1-4)Glc(b1-4)Glc(b1-4)Glc(b1-4)Glc(b1-4)Glc(b1-4)Glc(b1-4)Glc(b1-4)Glc(b1-4)Glc(b1-4)Glc(b1-4)Glc
Outline: as §1

[36] = target: Glc(b1-4)Glc(b1-4)Glc(b1-4)Glc(b1-4)Glc(b1-4)Glc(b1-4)Glc(b1-4)Glc(b1-4)Glc(b1-4)Glc(b1-4)Glc(b1-4)Glc(b1-4)Glc
Outline: as §1

Glc(b1-6)Glc = target: Glc(b1-6)Glc
Outline: as §1

Glc(b1-6)Glc(b1-6)Glc = target: Glc(b1-6)Glc(b1-6)Glc
Outline: as §1

[37] = target: Glc(b1-6)Glc(b1-6)Glc(b1-6)Glc
Outline: as §1

[38] = target: Glc(b1-6)Glc(b1-6)Glc(b1-6)Glc(b1-6)Glc
Outline: as §1

[39] = target: Glc(b1-6)Glc(b1-6)Glc(b1-6)Glc(b1-6)Glc(b1-6)Glc
Outline: as §1

[40] = target: Glc(b1-6)Glc(b1-6)Glc(b1-6)Glc(b1-6)Glc(b1-6)Glc(b1-6)Glc
Outline: as §1

[41] = target: Glc(b1-6)Glc(b1-6)Glc(b1-6)Glc(b1-6)Glc(b1-6)Glc(b1-6)Glc(b1-6)Glc
Outline: as §1

[42] = target: Glc(b1-6)Glc(b1-6)Glc(b1-6)Glc(b1-6)Glc(b1-6)Glc(b1-6)Glc(b1-6)Glc(b1-6)Glc
Outline: as §1

[43] = target: Glc(b1-6)Glc(b1-6)Glc(b1-6)Glc(b1-6)Glc(b1-6)Glc(b1-6)Glc(b1-6)Glc(b1-6)Glc(b1-6)Glc
Outline: as §1

[44] = target: Glc(b1-6)Glc(b1-6)Glc(b1-6)Glc(b1-6)Glc(b1-6)Glc(b1-6)Glc(b1-6)Glc(b1-6)Glc(b1-6)Glc(b1-6)Glc
Outline: as §1

[45] = target: Glc(b1-6)Glc(b1-6)Glc(b1-6)Glc(b1-6)Glc(b1-6)Glc(b1-6)Glc(b1-6)Glc(b1-6)Glc(b1-6)Glc(b1-6)Glc(b1-6)Glc(b1-6)Glc(b1-6)Glc(b1-6)Glc
Outline: as §1

[46] = target: Man(b1-4)Man(b1-4)Man(b1-4)Man
Outline: as §1

[47] = target: Man(b1-4)Man(b1-4)Man(b1-4)Man(b1-4)Man
Outline: as §1

[48] = target: Man(b1-4)Man(b1-4)Man(b1-4)Man(b1-4)Man(b1-4)Man
Outline: as §1

[49] = target: Xyl(b1-4)Xyl(b1-4)Xyl(b1-4)Xyl(b1-4)Xyl
Outline: as §1

[50] = target: Xyl(b1-4)Xyl(b1-4)Xyl(b1-4)Xyl(b1-4)Xyl(b1-4)Xyl
Outline: as §1

Measured: glycan array binding signal (z-score)

B1: Pul13 (Thermotoga maritima), O33840 (protein)
chain: ETTIVVHYHRYDGKYDGWNLWIWPVEPVSQEGKAYQFTGEDDFGKVAVVKLPMDLTKVGIIVRLNEWQAKDVAKDRFIEIKDGKAEVWILQGVEEIFYEKP
-0.32: [45]
-0.344: [46]
-0.342: [42]
-0.345: Glc(b1-4)Glc(b1-3)Glc
-0.346: [44]
-0.351: [1] | [2] | [3] | Glc(b1-3)Glc | Glc(b1-3)Glc(b1-3)Glc | [4] | [5] | [6] | [7] | [8] | [9] | [10] | [11] | [12] | [13] | [14] | [15] | [16] | [17] | [18] | Glc(b1-3)Glc(b1-4)Glc | [19] | [20] | [21] | [22] | Glc(b1-4)Glc | [23] | Glc(b1-4)Glc(b1-4)Glc | [24] | [25] | [26] | [27] | [28] | [29] | [30] | [31] | [32] | [33] | [35] | Glc(b1-6)Glc | Glc(b1-6)Glc(b1-6)Glc | [37] | [38] | [39] | [40] | [41] | [43] | [47] | [48] | [50]
-0.35: [34]
-0.347: [36] | [49]
